This passage reports binding results from paper PMC5503621.

Protein sequences, listed by entry. Tags and fused reporters are not part of them. Lines headed by an entry give the natural chain unless they say otherwise; changes in a name come on top. Chains listed by the source or under a name are the forms on record and can include a tag or linker. Residues count along the entry.
UniProt Q8BUN5: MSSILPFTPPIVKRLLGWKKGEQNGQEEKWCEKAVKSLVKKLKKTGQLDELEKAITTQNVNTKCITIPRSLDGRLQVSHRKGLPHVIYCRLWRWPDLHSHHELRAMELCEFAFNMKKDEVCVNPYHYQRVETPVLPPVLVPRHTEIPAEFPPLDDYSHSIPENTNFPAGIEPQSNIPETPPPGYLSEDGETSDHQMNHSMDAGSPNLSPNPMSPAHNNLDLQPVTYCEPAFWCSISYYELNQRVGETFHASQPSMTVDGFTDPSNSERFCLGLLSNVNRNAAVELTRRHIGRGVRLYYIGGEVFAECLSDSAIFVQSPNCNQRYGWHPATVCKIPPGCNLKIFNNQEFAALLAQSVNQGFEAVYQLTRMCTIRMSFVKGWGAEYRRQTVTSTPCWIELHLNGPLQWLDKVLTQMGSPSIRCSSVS
UniProt P97471: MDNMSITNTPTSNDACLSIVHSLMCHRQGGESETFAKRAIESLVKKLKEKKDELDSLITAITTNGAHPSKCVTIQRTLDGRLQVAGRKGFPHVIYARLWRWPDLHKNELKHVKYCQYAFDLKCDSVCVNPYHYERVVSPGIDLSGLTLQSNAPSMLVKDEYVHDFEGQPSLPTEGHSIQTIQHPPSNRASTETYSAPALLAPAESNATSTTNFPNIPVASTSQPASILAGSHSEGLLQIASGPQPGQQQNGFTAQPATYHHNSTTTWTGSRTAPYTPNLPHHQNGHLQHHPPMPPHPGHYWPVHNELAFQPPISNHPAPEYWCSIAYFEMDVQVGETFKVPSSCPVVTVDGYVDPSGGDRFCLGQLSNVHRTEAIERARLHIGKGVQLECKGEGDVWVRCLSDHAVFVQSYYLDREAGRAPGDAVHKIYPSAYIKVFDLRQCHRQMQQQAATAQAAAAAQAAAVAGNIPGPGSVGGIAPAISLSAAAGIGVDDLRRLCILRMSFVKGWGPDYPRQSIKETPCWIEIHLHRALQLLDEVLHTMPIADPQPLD
GST-tagged Smad4 truncate with the MH1 domain: residues 18-142 of P97471
UniProt Q62432: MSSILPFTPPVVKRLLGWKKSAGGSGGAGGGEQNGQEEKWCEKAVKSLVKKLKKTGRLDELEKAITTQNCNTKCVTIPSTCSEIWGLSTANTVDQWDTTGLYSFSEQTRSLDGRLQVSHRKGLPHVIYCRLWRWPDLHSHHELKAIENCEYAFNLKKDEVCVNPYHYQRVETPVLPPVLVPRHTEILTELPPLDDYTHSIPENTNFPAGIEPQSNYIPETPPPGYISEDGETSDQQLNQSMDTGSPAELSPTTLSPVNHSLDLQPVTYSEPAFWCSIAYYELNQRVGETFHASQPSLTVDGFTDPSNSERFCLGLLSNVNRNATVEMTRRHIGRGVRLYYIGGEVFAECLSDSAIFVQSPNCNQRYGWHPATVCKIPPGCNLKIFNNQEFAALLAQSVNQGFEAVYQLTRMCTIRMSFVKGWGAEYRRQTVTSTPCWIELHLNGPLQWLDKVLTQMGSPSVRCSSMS

In experiment [1] the target is GST-tagged Smad3 (UniProt Q8BUN5). The experiment in a line: pull-down; in vitro GST pull-down: GST-tagged Smads or Smad4 truncates on glutathione-Sepharose beads, His-tagged OVOL2 as prey; 4°C, 3 h; the methods say that nuclear extracts were incubated with the resin-bound proteins; only the target purified.
Experiment [2] has as its target GST-tagged Smad4 truncate with the MH1 domain (UniProt P97471). The description is as above.
Experiment [3] concerns the target GST-tagged Smad2 (UniProt Q62432). The description is as above.
Experiment [4] has as its target GST-tagged Smad4 (UniProt P97471). The experiment is described as above.
Experiment [5] addresses GST-tagged OVOL2 (UniProt Q8CIV7). The experiment in a line: pull-down; in vitro GST pull-down: GST-tagged OVOL2 or OVOL2 truncates on glutathione-Sepharose beads, His-tagged Smad4 as prey; 4°C, 3 h; the methods say that nuclear extracts were incubated with the resin-bound proteins; only the target purified.
The target of experiment [6] is FLAG-tagged Smad4 (NMuMG) (UniProt P97471). The experiment in a line: co-IP; NMuMG cells infected with lentivirus (vector control or OVOL2), transfected with FLAG-tagged Smad4, with or without TGF-β1 for 48 h; anti-FLAG immunoprecipitation, immunoblot for Smad2/3 and OVOL2.
For experiment [7], the target named is FLAG-tagged Smad4 (HEK293T) (UniProt P97471). Put plainly: co-IP; HEK293T cells transfected with FLAG-tagged Smad2/Smad3/Smad4 and untagged OVOL2; lysates immunoprecipitated with anti-FLAG antibody, immunoblot for OVOL2; lysis buffer 20 mM Tris-HCl pH 7.5, 150 mM NaCl, 1% Triton X-100. (In general: A western blot detects proteins with antibodies after separation by electrophoresis.)

Experiment [8] deals with Ovol2 (endogenous, 4T1) (mouse (endogenous in 4T1)) (UniProt Q8CIV7). Put plainly: co-IP; endogenous proteins; nuclear extracts of non-transfected 4T1 cells; immunoprecipitation of OVOL2, blot for Smad4.

Results are given in words; binding and its absence hold for the method and conditions named. Binding seen in cells or lysates may run through a third protein. Some binding calls cover weakened binding; strength is not graded here.

In the case of “His-tagged OVOL2 (from UniProt Q8CIV7 1-274)”, the binding result in experiment [1] was “no binding”; in experiment [2], “binds”; in experiment [3], “no binding”; in experiment [4] it was “binds”.
Turning to “His-tagged Smad4 (from UniProt P97471 1-551)”, the binding result in experiment [5] is listed as “binds”.
In the case of “OVOL2 (lentiviral overexpression, NMuMG) (from UniProt Q8CIV7 1-274)”, the binding entry in experiment [6] was “binds”.
As to “OVOL2 (untagged) (from UniProt Q8CIV7 1-274)”, the binding result in experiment [7] was “binds”.
On to “Smad2 (endogenous, NMuMG) (from UniProt Q62432 1-467)”, for which the binding entry in experiment [6] is recorded as “binds”.
The same measure, in the same setting: to “Smad3 (endogenous, NMuMG) (from UniProt Q8BUN5 1-425)” belongs “binds”.
As to “Smad4 (endogenous, 4T1) (from UniProt P97471 1-551)”, the binding entry in experiment [8] is “binds”.
